# From PubChem BioAssay AID504845 (National Center for Advancing Translational Sciences (NCATS), 2011)
# Hit rate of the full screen: of about 390,000 compounds, about 150 (0.038%) were called active. The shares of active, inactive and inconclusive entries below differ from those in the screen. Calls come from the whole dose curve; as a rule, active = well fitted inhibition curve with a large enough effect; inconclusive = small, poorly fitted or top-dose-only effect; inactive = no such curve, though single readings can be large or run the other way. Potencies beside an inconclusive call are fits to weak or partial responses and may not hold up.
# Biological target: Regulator of G-protein signaling 4 (Homo sapiens) (UniProt P49798)
# UniProt P49798, sequence (P49798 whole entry, looked up): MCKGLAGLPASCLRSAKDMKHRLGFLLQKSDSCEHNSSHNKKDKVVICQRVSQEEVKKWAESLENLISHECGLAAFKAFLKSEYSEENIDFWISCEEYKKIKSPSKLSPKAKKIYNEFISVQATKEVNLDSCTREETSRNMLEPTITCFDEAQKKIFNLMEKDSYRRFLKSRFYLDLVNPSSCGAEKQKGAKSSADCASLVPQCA
# Experiment: Inhibitors of Regulator of G Protein Signaling (RGS) 4: qHTS; note: nearly all actives have a fitted effect of over 75% in size
# Conditions: Transcreener GDP fluorescence polarization, RGS4-accelerated GTP hydrolysis; series mostly up to 114 µM
# In short: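 MLSMR compounds (23 nl, pin-transferred) preincubated 10 min at room temperature with a 500nM (2x) first reagent, then RGS4 at 900nM (2x) plus Transcreener GDP mix added; fluorescence polarization (620/688 nm) read before and after 90 min at 30 °C.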
# Potency is the fitted concentration of half-maximal effect; tags give direction and shape of the fitted curve.
row,Structure (SMILES),Potency
1,CCn1cc(C(=O)NCc2ccccc2Cl)cn1,"inconclusive: 100 µM [inhibitor, partial curve, poor fit]"
2,Cc1cc(NCCN2CCOCC2)n2ncc(-c3ccccc3)c2n1,"inconclusive: 89.1 µM [inhibitor, single point]"
3,CN1C(=O)c2ccccc2C(C(=O)NCc2ccco2)C1c1c[nH]c2ccccc12 (stereo unspecified),"inconclusive: 89.1 µM [inhibitor, single point]"
4,COc1ccc(OCC(=O)Nc2ccc(S(=O)(=O)Nc3cc(C)nc(C)n3)cc2)cc1,"inconclusive: 79.4 µM [inhibitor, single point]"
5,O=C(NNC(=O)c1cc(-c2ccc(Br)cc2)nc2ccccc12)c1csc(N2CCOCC2)n1,"inconclusive: 50.1 µM [inhibitor, partial curve, poor fit]"
6,COc1ccc(C(=O)/C=C/C(=O)N(CC(=O)NC2CCCCC2)Cc2ccccc2)c(O)c1,"inconclusive: 79.4 µM [inhibitor, partial curve, poor fit]"
7,Cc1[nH]n(-c2ccccc2)c(=S)c1C=Nc1ccc([N+](=O)[O-])cc1,"inconclusive: 11.2 µM [inhibitor, full curve, poor fit]"
8,O=C(NC(=S)NNC(=O)c1ccccc1[N+](=O)[O-])c1ccccc1,"inconclusive: 79.4 µM [inhibitor, partial curve, poor fit]"
9,CCOc1ccc(NC(=O)CN2C(=O)C3CCCN3C2=O)cc1 (stereo unspecified),"inconclusive: 50.1 µM [inhibitor, partial curve, poor fit]"
10,COc1ccc(-c2cc(C(=O)N3CCN(c4ccccc4OC)CC3)no2)cc1,"inconclusive: 70.8 µM [inhibitor, single point]"
11,CCOC(=O)C1CCCN(C2=NC(=O)/C(=C/c3ccc(OC)cc3OC)S2)C1 (stereo unspecified),"inconclusive: 44.7 µM [inhibitor, partial curve, poor fit]"
12,CC(CN1CCCCC1)OC(=O)COc1ccc(Cl)cc1 (stereo unspecified),"inconclusive: 44.7 µM [inhibitor, partial curve, poor fit]"
13,O=C(CSc1nnc(NC(=O)C2CC(=O)N(c3ccc(F)cc3)C2)s1)NCc1ccco1 (stereo unspecified),"inconclusive: 17.8 µM [inhibitor, full curve, poor fit]"
14,COc1ccc(C(=O)/C=C/C(=O)N(CC(=O)NC2CCCCC2)CC2CCCO2)c(O)c1 (stereo unspecified),"inconclusive: 100 µM [inhibitor, partial curve, poor fit]"
15,CC(C)(C)SCCNS(=O)(=O)c1ccc(Cl)cc1,"inconclusive: 31.6 µM [inhibitor, full curve, poor fit]"
16,Cc1cc(-c2ccc(/C=N/n3cnnc3)o2)c(C)c([N+](=O)[O-])c1,"inconclusive: 89.1 µM [inhibitor, single point]"
17,CCc1ccc(Oc2cc(C)nc(N)n2)cc1,inactive
18,Cc1nc(N2CCOCC2)c2c(C(=O)N3CCN(c4cccc(C)c4C)CC3)c(C)oc2n1,inactive
19,Cc1ccsc1/C=C(\C(=O)c1ccc(OC(C)C)cc1)c1nc2ccccc2o1,inactive
20,COc1ccc(C)cc1S(=O)(=O)Nc1ccc2c(c1)OCO2,"inconclusive: 70.8 µM [inhibitor, single point]"
21,COc1ccc(NC(=O)CN2CCN(c3ccccc3)CC2)cc1,inactive
22,O=C(NC1CCCC1)C1CCCN(S(=O)(=O)c2ccc(-n3cnnn3)cc2)C1 (stereo unspecified),"inconclusive: 79.4 µM [inhibitor, single point]"

row,Structure (SMILES),Potency
1,CC1c2ccsc2CCN1S(=O)(=O)c1ccccc1 (stereo unspecified),"inconclusive: 79.4 µM [inhibitor, partial curve, poor fit]"
2,COC(=O)/C=c1\sc2ncnn2c1=O,"inconclusive: 50.1 µM [inhibitor, partial curve, poor fit]"
3,COc1cc(CN2CCCCC2)ccc1OCc1ccccc1,inactive
4,CCN(CC)c1ccc(N2C(=O)CSC2=S)cc1,"inconclusive: 100 µM [inhibitor, partial curve, poor fit]"
5,Cc1cc(C)c(NC(=O)CCC(=O)N2Cc3ccccc3Oc3ncccc32)c(C)c1,inactive
6,CCn1c(-c2sc(-c3ccccc3)nc2C)n[nH]c1=S,"inconclusive: 100 µM [inhibitor, partial curve, poor fit]"
7,COc1ccc(S(=O)(=O)NCc2ccc3c(c2)cc(C)n3C)cc1,inactive
8,CCS(=O)(=O)Nc1cccc(C2=NN(C(=O)c3ccco3)C(c3ccco3)C2)c1 (stereo unspecified),inactive
9,CCc1cccc(NC(=O)CN(C)S(=O)(=O)c2cnc[nH]2)c1,inactive
10,CCN(CC)CCCNC(=O)Cn1nc(N2CCN(c3ccccc3OC)CC2)ccc1=O,"inconclusive: 89.1 µM [inhibitor, single point]"
11,CNc1ccc(Br)cc(C(=O)/C=C/c2cc(OC)ccc2OC)c1=O,"inconclusive: 79.4 µM [inhibitor, partial curve, poor fit]"
12,COC(=O)c1ccc(C)c(NC(=O)CN(c2ccccc2)S(=O)(=O)N(C)C)c1,"inconclusive: 17.8 µM [inhibitor, full curve, poor fit]"
13,Cc1ccc(-c2csc(N)n2)s1,"inconclusive: 89.1 µM [inhibitor, partial curve, poor fit]"
14,CCCc1nc2sc3c(SCC(=O)NCc4ccco4)ncnc3c2c2c1CCC2,"inconclusive: 89.1 µM [inhibitor, partial curve, poor fit]"
15,Cc1c(Cc2ccc3c(c2)OCO3)sc(NC(=O)C2CC2)c1C(N)=O,"inconclusive: 100 µM [inhibitor, partial curve, poor fit]"
16,Clc1ccc2c(N/N=C/c3ccc(Br)cc3)ccnc2c1,"inconclusive: 89.1 µM [inhibitor, single point]"
17,Cc1cc(O)c(C(C)C)cc1N=Cc1ccccc1O,"inconclusive: 31.6 µM [inhibitor, full curve, poor fit]"
18,O=c1[nH]cnc2c1sc1nc3c(c(-c4ccc(Cl)cc4)c12)CCC3,inactive
19,COc1ccc(CCn2c(N)c(C(=O)NCc3ccco3)c3nc4ccccc4nc32)cc1,"inconclusive: 50.1 µM [inhibitor, partial curve, poor fit]"
20,O=C(/C=C/c1ccco1)NCC1OCCc2ccccc21 (stereo unspecified),"inconclusive: 50.1 µM [inhibitor, partial curve, poor fit]"
21,CCOC(=O)Cc1cc(=O)n2[nH]c(C)c(-c3ccc(OC)cc3)c2n1,"inconclusive: 100 µM [inhibitor, single point]"
22,Cc1ccc(S(=O)(=O)Nc2ccc(Br)cc2C(NCC(=O)O)c2ccccc2)cc1 (stereo unspecified),inactive

row,Structure (SMILES),Potency
1,[N-]=C=C1C(=O)NC(=O)C([n+]2ccc(-c3ccncc3)cc2)C1c1ccccc1C(F)(F)F (stereo unspecified),"inconclusive: 50.1 µM [inhibitor, partial curve, poor fit]"
2,CCCC1CCC(=NNS(=O)(=O)c2ccc(C)c([N+](=O)[O-])c2)CC1 (stereo unspecified),"inconclusive: 56.2 µM [inhibitor, partial curve, poor fit]"
3,CN(C)c1ncccc1-c1nc2ccccc2s1,"inconclusive: 79.4 µM [inhibitor, single point]"
4,O=C(Nc1ccccc1)N1CCC(C(=O)N2CCCC(C(F)(F)F)C2)CC1 (stereo unspecified),"inconclusive: 89.1 µM [inhibitor, single point]"
5,N#Cc1ccc(NC2c3ccccc3CC2O)cc1 (stereo unspecified),inactive
6,Cc1cc(C(=O)CCl)c(C)n1-c1cccc(S(=O)(=O)N2CCOCC2)c1,inactive
7,Cc1cc(C(C)(C)C)c(O)c(C(C)(C)C)c1,inactive
8,CCOc1ccc(NC(=O)Cn2cc(C(=O)CC)c3ccccc32)cc1,"inconclusive: 50.1 µM [inhibitor, partial curve, poor fit]"
9,O=C(NC(=S)Nc1cccnc1Cl)c1ccc(Cl)cc1,"inconclusive: 100 µM [inhibitor, partial curve, poor fit]"
10,CN1CCN(CCCC(=O)c2ccc(F)cc2)CC1,inactive
11,O=C(CC1(c2ccc(Cl)cc2)C2CC3CC(C2)CC1C3)NCCO (stereo unspecified),inactive
12,CCOc1ccccc1NC(=O)COC(=O)/C=C/c1ccc(OC)c(OC)c1,"inconclusive: 44.7 µM [inhibitor, partial curve, poor fit]"
13,COc1ccc(NN=Nc2ccc([N+](=O)[O-])cc2)cc1,"inconclusive: 89.1 µM [inhibitor, single point]"
14,CC1(C(=O)Nc2cccc(-n3cnnn3)c2)Cc2ccccc2C(=O)O1 (stereo unspecified),inactive
15,O=C(Nc1cccc(Cl)c1)c1cc(S(=O)(=O)NCCc2ccc(Cl)cc2)ccc1F,"inconclusive: 44.7 µM [inhibitor, partial curve, poor fit]"
16,Cn1c(=O)c(=O)n(C)c2cc(S(=O)(=O)N3CCC(Cc4ccccc4)CC3)ccc21,"inconclusive: 100 µM [inhibitor, single point]"
17,Cc1ccccc1-n1nc(C)c2c1N=C1C(Cl)=CC(Cl)=CN1C2c1ccc(C(=O)O)cc1 (stereo unspecified),"inconclusive: 39.8 µM [inhibitor, partial curve, poor fit]"
18,Cc1nn(Cc2ccccc2)c(=O)c2nn(-c3ccc(Cl)cc3)c(C)c12,"inconclusive: 89.1 µM [inhibitor, single point]"
19,N#Cc1ccc(CN2CCN(C(=O)Cn3nc(C(N)=O)c4ccccc4c3=O)CC2)cc1,inactive
20,O=C(NNC(=O)c1cccc(O)c1)Nc1ccc([N+](=O)[O-])cc1,inactive
21,N#CC1=C(N)SC(N)=C(C#N)C1c1c(Cl)cccc1Cl,"inconclusive: 56.2 µM [inhibitor, partial curve, poor fit]"
22,Cc1cc(Br)ccc1NC(=O)C1CCCN(S(=O)(=O)c2cccc3nonc23)C1 (stereo unspecified),inactive
